# According to the supplement of paper PMC8728848:
# The list shows a part of the results.
# B1: Mincle (Homo sapiens), Q9ULY5 (protein)
# chain: MNSSKSSETQCTERGCFSSQMFLWTVAGIPILFLSACFITRCVVTFRIFQTCDEKKFQLPENFTELSCYNYGSGSVKNCCPLNWEYFQSSCYFFSTDTISWALSLKNCSAMGAHLVVINSQEEQEFLSYKKPKMREFFIGLSDQVVEGQWQWVDGTPLTKSLSFWDVGEPNNIATLEDCATMRDSSNPRQNWNDVTCFLNYFRICEMVGINPLNKGKSL
# Assays:
# Experiment in all cases: glycan array binding signal (z-score within array); higher = stronger binding
# Conditions in all cases: glycan notation: IUPAC condensed, linker removed
# [1] = molecular target: Neu5Ac(a2-3)Gal(b1-3)GalNAc(b1-4)[Neu5Ac(a2-3)]Gal(b1-4)Glc
# Summary of the method: (§1)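 The binding signal is a Z-score computed within each array and averaged over linkers. Arrays of the same protein sequence at different concentrations or buffers were also averaged together. Data originate from 3228 arrays in the Consortium for Functional Glycomics database, kept only where the protein sequence was available.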
# [2] = molecular target: Neu5Ac(a2-3)Gal(b1-3)GalNAc6S
# Summary of the method: as §1
# [3] = molecular target: Neu5Ac(a2-3)Gal(b1-3)GlcNAc
# Summary of the method: as §1
# [4] = molecular target: Neu5Ac(a2-3)Gal(b1-3)GlcNAc(b1-2)Man(a1-3)[Neu5Ac(a2-3)Gal(b1-3)GlcNAc(b1-2)Man(a1-6)]Man(b1-4)GlcNAc(b1-4)GlcNAc
# Summary of the method: as §1
# [5] = molecular target: Neu5Ac(a2-3)Gal(b1-3)GlcNAc(b1-3)Gal(b1-3)GlcNAc
# Summary of the method: as §1
# [6] = molecular target: Neu5Ac(a2-3)Gal(b1-3)GlcNAc(b1-3)Gal(b1-4)GlcNAc
# Summary of the method: as §1
# [7] = molecular target: Neu5Ac(a2-3)Gal(b1-3)GlcNAc(b1-3)GalNAc
# Summary of the method: as §1
# [8] = molecular target: Neu5Ac(a2-3)Gal(b1-3)GlcNAc6S
# Summary of the method: as §1
# [9] = molecular target: Neu5Ac(a2-3)Gal(b1-3)[Fuc(a1-4)]GlcNAc
# Summary of the method: as §1
# [10] = molecular target: Neu5Ac(a2-3)Gal(b1-3)[Fuc(a1-4)]GlcNAc(b1-3)Gal(b1-3)[Fuc(a1-4)]GlcNAc
# Summary of the method: as §1
# [11] = molecular target: Neu5Ac(a2-3)Gal(b1-3)[Fuc(a1-4)]GlcNAc(b1-3)Gal(b1-4)[Fuc(a1-3)]GlcNAc
# Summary of the method: as §1
# [12] = molecular target: Neu5Ac(a2-3)Gal(b1-3)[Neu5Ac(a2-3)Gal(b1-4)]GlcNAc
# Summary of the method: as §1
# [13] = molecular target: Neu5Ac(a2-3)Gal(b1-3)[Neu5Ac(a2-6)]GalNAc
# Summary of the method: as §1
# Neu5Ac(a2-3)Gal(b1-4)Glc = molecular target: Neu5Ac(a2-3)Gal(b1-4)Glc
# Summary of the method: as §1
# [14] = molecular target: Neu5Ac(a2-3)Gal(b1-4)GlcNAc
# Summary of the method: as §1
# [15] = molecular target: Neu5Ac(a2-3)Gal(b1-4)GlcNAc(b1-2)Man(a1-3)[GlcNAc(b1-2)Man(b1-4)GlcNAc(b1-2)Man(a1-6)]Man(b1-4)GlcNAc(b1-4)GlcNAc
# Summary of the method: as §1
# [16] = molecular target: Neu5Ac(a2-3)Gal(b1-4)GlcNAc(b1-2)Man(a1-3)[Neu5Ac(a2-6)Gal(b1-4)GlcNAc(b1-2)Man(a1-6)]Man(b1-4)GlcNAc(b1-4)GlcNAc
# Summary of the method: as §1
# [17] = molecular target: Neu5Ac(a2-3)Gal(b1-4)GlcNAc(b1-3)Gal(b1-3)GlcNAc
# Summary of the method: as §1
# [18] = molecular target: Neu5Ac(a2-3)Gal(b1-4)GlcNAc(b1-3)Gal(b1-4)GlcNAc
# Summary of the method: as §1
# [19] = molecular target: Neu5Ac(a2-3)Gal(b1-4)GlcNAc(b1-3)Gal(b1-4)GlcNAc(b1-3)Gal(b1-4)GlcNAc
# Summary of the method: as §1
# [20] = molecular target: Neu5Ac(a2-3)Gal(b1-4)GlcNAc(b1-3)Gal(b1-4)[Fuc(a1-3)]GlcNAc
# Summary of the method: as §1
# [21] = molecular target: Neu5Ac(a2-3)Gal(b1-4)GlcNAc(b1-3)GalNAc
# Summary of the method: as §1
# [22] = molecular target: Neu5Ac(a2-3)Gal(b1-4)GlcNAc(b1-6)[Gal(b1-3)]GalNAc
# Summary of the method: as §1
# [23] = molecular target: Neu5Ac(a2-3)Gal(b1-4)GlcNAc(b1-6)[Neu5Ac(a2-3)Gal(b1-3)]GalNAc
# Summary of the method: as §1
# [24] = molecular target: Neu5Ac(a2-3)Gal(b1-4)GlcNAc6S
# Summary of the method: as §1
# [25] = molecular target: Neu5Ac(a2-3)Gal(b1-4)[Fuc(a1-3)]GlcNAc
# Summary of the method: as §1
# [26] = molecular target: Neu5Ac(a2-3)Gal(b1-4)[Fuc(a1-3)]GlcNAc(b1-3)Gal
# Summary of the method: as §1
# [27] = molecular target: Neu5Ac(a2-3)Gal(b1-4)[Fuc(a1-3)]GlcNAc(b1-3)Gal(b1-4)GlcNAc
# Summary of the method: as §1
# [28] = molecular target: Neu5Ac(a2-3)Gal(b1-4)[Fuc(a1-3)]GlcNAc(b1-3)Gal(b1-4)[Fuc(a1-3)]GlcNAc(b1-3)Gal(b1-4)[Fuc(a1-3)]GlcNAc
# Summary of the method: as §1
# [29] = molecular target: Neu5Ac(a2-3)Gal(b1-4)[Fuc(a1-3)]GlcNAc(b1-3)GalNAc
# Summary of the method: as §1
# [30] = molecular target: Neu5Ac(a2-3)Gal(b1-4)[Fuc(a1-3)]GlcNAc(b1-6)[Gal(b1-3)]GalNAc
# Summary of the method: as §1
# [31] = molecular target: Neu5Ac(a2-3)Gal(b1-4)[Fuc(a1-3)]GlcNAc(b1-6)[Neu5Ac(a2-3)Gal(b1-3)]GalNAc
# Summary of the method: as §1
# [32] = molecular target: Neu5Ac(a2-3)Gal(b1-4)[Fuc(a1-3)]GlcNAc6S
# Summary of the method: as §1
# [33] = molecular target: Neu5Ac(a2-3)Gal6S(b1-4)GlcNAc
# Summary of the method: as §1
# [34] = molecular target: Neu5Ac(a2-3)Gal6S(b1-4)[Fuc(a1-3)]GlcNAc
# Summary of the method: as §1
# Neu5Ac(a2-3)GalNAc = molecular target: Neu5Ac(a2-3)GalNAc
# Summary of the method: as §1
# [35] = molecular target: Neu5Ac(a2-3)GalNAc(b1-4)GlcNAc
# Summary of the method: as §1
# [36] = molecular target: Neu5Ac(a2-3)[GalNAc(b1-4)]Gal(b1-4)Glc
# Summary of the method: as §1
# [37] = molecular target: Neu5Ac(a2-3)[GalNAc(b1-4)]Gal(b1-4)GlcNAc
# Summary of the method: as §1
# [38] = molecular target: Neu5Ac(a2-3)[GalNAc(b1-4)]Gal(b1-4)GlcNAc(b1-3)GalNAc
# Summary of the method: as §1
# [39] = molecular target: Neu5Ac(a2-3)[Neu5Ac(a2-6)]GalNAc
# Summary of the method: as §1
# Neu5Ac(a2-6)Gal = molecular target: Neu5Ac(a2-6)Gal
# Summary of the method: as §1
binder,measurement,setting,value
B1,glycan array binding signal (z-score),[1],0.06
same,glycan array binding signal (z-score),[2],-0.008
same,glycan array binding signal (z-score),[3],-0.372
same,glycan array binding signal (z-score),[4],-0.71
same,glycan array binding signal (z-score),[5],-0.197
same,glycan array binding signal (z-score),[6],-0.575
same,glycan array binding signal (z-score),[7],-0.064
same,glycan array binding signal (z-score),[8],0.06
same,glycan array binding signal (z-score),[9],-0.422
same,glycan array binding signal (z-score),[10],0.088
same,glycan array binding signal (z-score),[11],-0.008
same,glycan array binding signal (z-score),[12],-0.483
same,glycan array binding signal (z-score),[13],-0.315
same,glycan array binding signal (z-score),Neu5Ac(a2-3)Gal(b1-4)Glc,-0.335
same,glycan array binding signal (z-score),[14],-0.149
same,glycan array binding signal (z-score),[15],3.33
same,glycan array binding signal (z-score),[16],2.53
same,glycan array binding signal (z-score),[17],-0.067
same,glycan array binding signal (z-score),[18],-0.667
same,glycan array binding signal (z-score),[19],-0.085
same,glycan array binding signal (z-score),[20],-0.372
same,glycan array binding signal (z-score),[21],-0.53
same,glycan array binding signal (z-score),[22],-0.344
same,glycan array binding signal (z-score),[23],-0.18
same,glycan array binding signal (z-score),[24],0.158
same,glycan array binding signal (z-score),[25],0.028
same,glycan array binding signal (z-score),[26],-0.49
same,glycan array binding signal (z-score),[27],0.445
same,glycan array binding signal (z-score),[28],-0.324
same,glycan array binding signal (z-score),[29],2.37
same,glycan array binding signal (z-score),[30],0.075
same,glycan array binding signal (z-score),[31],-0.443
same,glycan array binding signal (z-score),[32],-0.464
same,glycan array binding signal (z-score),[33],-0.192
same,glycan array binding signal (z-score),[34],-0.014
same,glycan array binding signal (z-score),Neu5Ac(a2-3)GalNAc,-0.016
same,glycan array binding signal (z-score),[35],-0.219
same,glycan array binding signal (z-score),[36],-0.338
same,glycan array binding signal (z-score),[37],-0.034
same,glycan array binding signal (z-score),[38],-0.428
same,glycan array binding signal (z-score),[39],-0.51
same,glycan array binding signal (z-score),Neu5Ac(a2-6)Gal,0.075
